Values joined by “and” are separate entries in the source; they are usually repeats but may differ in a detail not shown here. Identical values can stand only once. The shares of active, inactive and inconclusive entries below differ from those in the screen. For some assays here: Where the call is inconclusive, the potency comes from a doubtful curve fit. Active and inactive are the calls of the source. Unless noted, calls follow the shape of the dose curve; as a rule, active = well fitted curve in the direction sought with a large enough effect in the repeat runs; inconclusive = weak or mixed curves; inactive = no such curve, though single readings can be large; an effect the other way counts as inactive or inconclusive. *1 amine or outer side, *2 acyl side, *3 side chain or, on linkers, in order; H or OH if unused. Where a SMILES comes first, the peptide text is derived from it. Bridges are numbered along the chain shown (N, C = ends). Roman numbers before positions name the chains, in order. [ ]: non-standard residue; d: D form. Actinocin(9to1) = Cc1c2oc3c(C)ccc(C(=O)[*:1])c3nc-2c(C(=O)[*:2])c(N)c1=O; NMeV = CN[C@H](C(=O)O)C(C)C; Sar = CNCC(=O)O
Experiments:
[1] = qHTS assay to identify small molecule agonists of the estrogen receptor beta (ER-beta) signaling pathway - cell viability counter screen (AID 1259380); also: nearly all actives have a fitted effect of over 30% in size; also: potency is read from the fitted curve at half-maximal effect
How it was run: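 Steps: plate ER-beta-UAS-bla HEK293T cells, rest 6 hr; add compounds in DMSO; incubate 16 hr at 37C, 5% CO2; add FRET substrate 2 hr; add CellTiter-Glo, wait 30 min at room temperature; read luminescence.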

[2] = qHTS assay to identify small molecule antagonists of the estrogen receptor beta (ER-beta) signaling pathway - cell viability counter screen (AID 1259382); also: nearly all actives have a fitted effect of over 55% in size; also: potency is read from the fitted curve at half-maximal effect
How it was run: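 Viability is scored by CellTiter-Glo luminescence (30 min, room temperature) in ER-beta-UAS-bla HEK293T wells already read for reporter fluorescence. Compound exposure lasts 16 hr at 37C alongside 1nM 17-beta-estradiol in charcoal-stripped serum medium.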

[3] = qHTS assay to identify small molecule agonists of the androgen receptor (AR) signaling pathway in the presence of an antagonist - cell viability counter screen (AID 1259379); also: nearly all actives have a fitted effect of over 25% in size; also: potency is read from the fitted curve at half-maximal effect
How it was run: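 Nilutamide-containing (3.0uM final) MDA-kb2 cultures, 3,000 cells/well, were treated with compounds across 15 concentrations. After 16 hr at 37C with no CO2, cell viability was determined by CellTiter-Fluor fluorescence in the luciferase assay wells.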

[4] = qHTS assay to identify small molecule agonists of the estrogen receptor alpha (ER-alpha) signaling pathway in the presence of an antagonist - cell viability counter screen (AID 1259386);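 also: potency is read from the fitted curve at half-maximal effect; cells exposed to compounds for 22 h at 37 °C before the viability read; nearly all actives have a fitted effect of over 30% in size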
How it was run: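 In this counter screen, compound effects on VM7Luc4E2 viability were tested in the presence of the antagonist ICI-182,780 at 10.0nM final. Compounds were dosed at 15 concentrations, exposure lasted 22hr, and the CellTiter-Fluor signal was read.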

[5] = target: Progesterone receptor (Homo sapiens) (UniProt P06401); assay: qHTS assay to identify small molecule antagonists of the progesterone receptor (PR) signaling pathway (AID 1346795; active = well fitted inhibition curve with a large enough effect in the signal ratio in the repeat runs, not every such curve was filed as active; inconclusive = weak or mixed curves; the % refers to the signal ratio; also: potency is read from the fitted curve at half-maximal effect); conditions: PR-UAS-bla HEK293T, beta-lactamase FRET ratio, 16 h; activity change, negative = inhibition: at 92.4 µM (top of the series) unless noted
How it was run: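 Screening used a GripTite HEK293T line with PR-responsive UAS-beta-lactamase. Cells were challenged with compound in the presence of 1 nM R5020 final for 16 hr at 37C; B/G FRET substrate, 2 hr room temperature, fluorescence.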

[6] = qHTS assay to identify small molecule antagonists of the TGF-beta/Smad signaling pathway (AID 1346924; active = well fitted inhibition curve with a large enough effect in the signal ratio in the repeat runs, not every such curve was filed as active; inconclusive = weak or mixed curves; the % refers to the signal ratio; also: potency is read from the fitted curve at half-maximal effect); conditions: SBE-bla HEK293T, TGF-beta/Smad reporter, beta-lactamase ratio; activity, negative = inhibition: at 76.8 µM (top of the series) unless noted
How it was run: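 Read-out was FRET-substrate fluorescence (405 nm excitation; 460 and 530 nm emission) after 2 h at room temperature. Before that, cells carrying a Smad-binding-element beta-lactamase reporter in HEK 293T had been stimulated 5 h at 37 C with TGF-beta1 (0.25 ng/mL addition solution) in the presence of test compound.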

[7] = target: Thyrotropin receptor (Homo sapiens) (UniProt P16473); assay: qHTS assay to identify small molecule antagonists of the thyroid stimulating hormone receptor (TSHR) signaling pathway (AID 1259385; calls by dose curve; also: potency is read from the fitted curve at half-maximal effect; nearly all actives have a fitted effect of over 20% in size); conditions: TSHR-HEK293 cAMP HTRF, TSH-stimulated antagonist mode; activity change, negative = inhibition: at 92.4 µM (top of the series) unless noted
How it was run: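 TSHR-HEK293 cells were plated and held 18 h at 37C/5% CO2, then given compound plus Ro20-1724 and stimulated with TSH at 1.5 ng/mL final. After 30 min at room temperature, cAMP was detected with cAMP-d2/anti-cAMP-cryptate (1 h) by fluorescence.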

[8] = target: Progesterone receptor (Homo sapiens) (UniProt P06401); assay: qHTS assay to identify small molecule agonists of the progesterone receptor (PR) signaling pathway (AID 1346784; calls by dose curve; also: nearly all actives have a fitted effect of over 30% in size; also: potency is read from the fitted curve at half-maximal effect; as to activation: % is scaled to controls: 0 for no effect and ±100 for the full control effect); conditions: PR-UAS-bla HEK293T, beta-lactamase FRET ratio, 16 h; activation: at 92.4 µM (top of the series) unless noted
How it was run: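 Seed PR-UAS-bla HEK 293T cells (2% charcoal-stripped FBS), incubate 6 hr at 37C; add compounds in DMSO, 16 hr at 37C; add LiveBLAzer B/G substrate, 2 hr RT; read fluorescence intensity.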

[9] = qHTS assay to identify small molecule antagonists of the progesterone receptor (PR) signaling pathway - cell viability counter screen (AID 1346798); also: nearly all actives have a fitted effect of over 50% in size; also: potency is read from the fitted curve at half-maximal effect
How it was run: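 Measures cytotoxicity in parallel with the PR antagonist reporter read: HEK293T PR-UAS-bla cells get compound and R5020 for 16 hr, and remaining viable cells are quantified by CellTiter-Glo luminescence.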

[10] = qHTS assay to identify small molecule agonists of the progesterone receptor (PR) signaling pathway - cell viability counter screen (AID 1346799; calls by dose curve; also: potency is read from the fitted curve at half-maximal effect; nearly all actives have a fitted effect of over 45% in size)
How it was run: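 Using the same plates as the PR reporter screen, HEK293T PR-UAS-bla cells received compounds for 16 hr at 37C and were then lysed with CellTiter-Glo; luminescence was read 30 min later at room temperature.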

[11] = qHTS assay to identify small molecule agonists or antagonists of the thyroid stimulating hormone receptor (TSHR) signaling pathway - wild type cell line counter screen (AID 1259384; calls by dose curve; also: potency is read from the fitted curve at half-maximal effect); conditions: HEK293 wild type, cAMP HTRF counter-screen; cAMP activity change: at 92.4 µM (top of the series), stronger effect = higher value unless noted
How it was run: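 Wild-type HEK293 cells were plated 18 h at 37 C/5% CO2, pin-dosed with compound plus Ro20-1724 medium, held 30 min at room temperature, then given cAMP-d2 and anti-cAMP-cryptate; fluorescence was read after 1 h. Fifteen concentrations, triplicate.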

[12] = qHTS assay to identify small molecule agonists of the TGF-beta/Smad signaling pathway - cell viability counter screen (AID 1346829); also: potency is read from the fitted curve at half-maximal effect; nearly all actives have a fitted effect of over 45% in size
How it was run: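 CellTiter-Glo luminescence readout; SBE-bla HEK 293T cells, overnight plating, compound 5 hr at 37 C/5% CO2, then bla substrate 2 hr RT, then CellTiter-Glo 30 min RT.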

[13] = qHTS assay to identify small molecule agonists of the TGF-beta/Smad signaling pathway (AID 1346859; active = well fitted activation curve with a large enough effect in the signal ratio in the repeat runs, not every such curve was filed as active; inconclusive = weak or mixed curves; the % refers to the signal ratio; also: % is scaled to controls: 0 for no effect and ±100 for the full control effect); conditions: SBE-bla HEK293T, TGF-beta/Smad beta-lactamase reporter, 5 h; activation: at 76.8 µM (top of the series) unless noted
How it was run: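 Beta-lactamase reporter activity downstream of Smad binding elements was measured in stably transfected HEK 293T cells; compounds were incubated for 5 hr, substrate for 2 hr at room temperature.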

[14] = qHTS assay to identify small molecule antagonists of the TGF-beta/Smad signaling pathway - cell viability counter screen (AID 1346824); also: potency is read from the fitted curve at half-maximal effect; nearly all actives have a fitted effect of over 50% in size
How it was run: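 SBE-bla HEK 293T cells were plated overnight at 37 C, then given compounds in DMSO plus TGF-beta1 (added as 0.25 ng/mL solution) for 5 hr. After the bla read, CellTiter-Glo was added to the same wells and luminescence read after 30 min at room temperature.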

[15] = target: Thyrotropin-releasing hormone receptor (Homo sapiens) (UniProt P34981); assay: qHTS assay to identify small molecule antagonists of the thyrotropin-releasing hormone receptor (TRHR) signaling pathway (AID 1346877; active = well fitted inhibition curve with a large enough effect in the repeat runs, not every such curve was filed as active; inconclusive = weak or mixed curves; also: % is scaled to controls: 0 for no effect and ±100 for the full control effect)
How it was run: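 Kinetic fluorescence (3 min, 1 s resolution) following stimulation with TRH at 1 nM final; HEK293 cells bearing human TRHR; 5 min compound preincubation at RT; concentration-response over 15 points, triplicates.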
Tags tell the direction and shape of the fitted curve or compound fluorescence and quenching.

Chain of UniProt P06401 (P06401 whole entry, looked up): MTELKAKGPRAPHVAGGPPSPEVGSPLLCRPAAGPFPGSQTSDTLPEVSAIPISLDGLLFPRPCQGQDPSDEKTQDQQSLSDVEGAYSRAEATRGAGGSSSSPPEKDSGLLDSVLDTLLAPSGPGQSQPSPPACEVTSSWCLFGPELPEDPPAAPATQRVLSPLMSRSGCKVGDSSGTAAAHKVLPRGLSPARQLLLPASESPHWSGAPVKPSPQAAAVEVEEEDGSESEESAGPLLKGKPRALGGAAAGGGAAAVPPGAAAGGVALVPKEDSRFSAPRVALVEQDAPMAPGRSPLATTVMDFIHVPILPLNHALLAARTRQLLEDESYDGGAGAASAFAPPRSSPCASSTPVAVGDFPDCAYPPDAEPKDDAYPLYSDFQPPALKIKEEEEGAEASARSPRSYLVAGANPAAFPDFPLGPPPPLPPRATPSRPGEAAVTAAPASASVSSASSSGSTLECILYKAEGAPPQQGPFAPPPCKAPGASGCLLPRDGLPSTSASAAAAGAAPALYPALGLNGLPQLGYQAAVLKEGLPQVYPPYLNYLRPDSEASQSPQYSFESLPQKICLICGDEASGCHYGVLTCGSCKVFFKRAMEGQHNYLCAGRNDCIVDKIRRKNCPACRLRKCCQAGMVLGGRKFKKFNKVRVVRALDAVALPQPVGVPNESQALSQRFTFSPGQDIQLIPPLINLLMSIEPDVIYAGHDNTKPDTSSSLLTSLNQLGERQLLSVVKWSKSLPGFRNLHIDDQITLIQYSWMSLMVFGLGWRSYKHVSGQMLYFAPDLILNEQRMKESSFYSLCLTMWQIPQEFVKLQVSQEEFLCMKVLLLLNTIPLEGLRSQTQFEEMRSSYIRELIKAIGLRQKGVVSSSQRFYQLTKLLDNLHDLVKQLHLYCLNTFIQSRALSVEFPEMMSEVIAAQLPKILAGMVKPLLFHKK
Chain of UniProt P16473 (P16473 whole entry, looked up): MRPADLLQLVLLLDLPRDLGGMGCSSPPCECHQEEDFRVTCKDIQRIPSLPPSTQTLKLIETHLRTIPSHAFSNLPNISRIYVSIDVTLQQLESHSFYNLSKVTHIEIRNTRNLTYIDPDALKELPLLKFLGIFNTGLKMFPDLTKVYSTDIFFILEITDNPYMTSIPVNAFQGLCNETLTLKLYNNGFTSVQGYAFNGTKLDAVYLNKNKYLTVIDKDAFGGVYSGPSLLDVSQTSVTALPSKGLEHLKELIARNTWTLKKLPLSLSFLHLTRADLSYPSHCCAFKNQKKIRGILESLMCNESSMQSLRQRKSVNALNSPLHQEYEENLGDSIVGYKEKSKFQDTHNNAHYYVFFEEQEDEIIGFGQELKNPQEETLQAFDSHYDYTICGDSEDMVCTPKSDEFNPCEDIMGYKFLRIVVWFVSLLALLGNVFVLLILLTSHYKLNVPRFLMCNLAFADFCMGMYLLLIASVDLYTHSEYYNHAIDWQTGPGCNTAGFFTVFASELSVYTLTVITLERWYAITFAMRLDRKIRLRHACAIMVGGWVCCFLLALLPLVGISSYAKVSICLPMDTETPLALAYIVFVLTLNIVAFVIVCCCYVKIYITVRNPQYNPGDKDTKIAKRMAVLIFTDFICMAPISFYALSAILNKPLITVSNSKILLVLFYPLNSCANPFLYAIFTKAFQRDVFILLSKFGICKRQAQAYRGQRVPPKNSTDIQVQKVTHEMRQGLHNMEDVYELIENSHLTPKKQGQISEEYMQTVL
Chain of UniProt P34981 (P34981 whole entry, looked up): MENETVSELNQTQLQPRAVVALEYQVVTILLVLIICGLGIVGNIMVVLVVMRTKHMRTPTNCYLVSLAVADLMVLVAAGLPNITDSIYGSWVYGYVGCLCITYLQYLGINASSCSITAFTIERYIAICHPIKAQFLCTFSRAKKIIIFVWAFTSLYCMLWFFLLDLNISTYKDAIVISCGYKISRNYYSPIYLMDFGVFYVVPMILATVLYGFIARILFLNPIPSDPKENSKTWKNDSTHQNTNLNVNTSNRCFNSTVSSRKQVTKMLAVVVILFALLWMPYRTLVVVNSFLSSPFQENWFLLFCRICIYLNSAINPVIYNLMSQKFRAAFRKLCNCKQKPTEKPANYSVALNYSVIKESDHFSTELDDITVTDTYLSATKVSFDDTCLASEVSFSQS

Question: With `C=CC1CO1` (centres undefined) as the molecule, how does the Potency [1] read?
Answer: inconclusive: 71.7 µM [rising, partial curve, poor fit]

Question: What about the Potency [2] of the same molecule?
Answer: inactive

Question: With `NC(=O)CC[C@@H]1NC(=O)[C@H](Cc2ccccc2)NC(=O)[C@H](Cc2ccc(O)cc2)NC(=O)CCSSC[C@@H](C(=O)N2CCC[C@H]2C(=O)N[C@@H](CCCN=C(N)N)C(=O)NCC(N)=O)NC(=O)[C@H](CC(N)=O)NC1=O` as the molecule, how does the Potency [1] read?
Answer: inactive

Question: For `Nc1cc(=O)[nH]c(N)n1`, which Potency [1] is on record?
Answer: inactive

Question: Which Potency [3] does the source give for `Cc1c2oc3c(C)ccc(C(=O)N[C@@H]4C(=O)N[C@H](C(C)C)C(=O)N5CCC[C@H]5C(=O)N(C)CC(=O)N(C)[C@@H](C(C)C)C(=O)O[C@@H]4C)c3nc-2c(C(=O)N[C@@H]2C(=O)N[C@H](C(C)C)C(=O)N3CCC[C@H]3C(=O)N(C)CC(=O)N(C)[C@@H](C(C)C)C(=O)O[C@@H]2C)c(N)c1=O` (I: T[dV]P[Sar][NMeV] / II: T[dV]P[Sar][NMeV]; ester I:1-I:C, II:1-II:C; linker I:N-II:N via Actinocin(9to1)) here?
Answer: active: 10.6 µM

Question: What about the Potency [4] of the same molecule?
Answer: active: 26.6 µM and active: 10.6 µM

Question: And the Potency [5]?
Answer: active: 26.6 nM and active: 33.5 nM

Question: And the activity, negative = inhibition [6]?
Answer: inconclusive: 21.6% [at 35.3 µM] and inconclusive: 12.7% [at 35.3 µM]

Question: Which Potency [1] does the source give for `Cc1cn[nH]c1` here?
Answer: inconclusive: 33.5 µM [rising, partial curve, poor fit]

Question: For `CCCCCCCCCCCCCCC`, which Potency [1] is on record?
Answer: inconclusive: 0.545 µM [cytotoxic, single point]

Question: With `NC(=O)c1nc(-c2cccc(-c3cc(F)ccc3OCC(F)(F)C(F)(F)F)c2)n[nH]1` as the molecule, how does the Potency [1] read?
Answer: active: 61.1 µM

Question: What about the Potency [2] of the same molecule?
Answer: inconclusive: 68.6 µM [cytotoxic, single point]

Question: And the Potency [7]?
Answer: inconclusive: 15.4 µM [rising, partial curve]

Question: What about the Potency [4] of the same molecule?
Answer: inconclusive: 61.1 µM [cytotoxic]

Question: And the activation [8]?
Answer: inconclusive: -12.8%

Question: And the Potency [5]?
Answer: active: 34.4 µM

Question: And the Potency [9]?
Answer: inconclusive: 77 µM [cytotoxic, single point]

Question: And the Potency [10]?
Answer: inconclusive: 77 µM [cytotoxic, single point]

Question: And the activity, negative = inhibition [6]?
Answer: inconclusive: -16.5%

Question: For `Clc1cc(Cl)nc(Cl)n1`, which Potency [3] is on record?
Answer: inconclusive: 69.5 µM [cytotoxic, single point]

Question: And the Potency [9]?
Answer: inactive

Question: With `CN(C)c1ccc(N=NS(=O)(=O)O)cc1` as the molecule, how does the Potency [1] read?
Answer: inconclusive: 30.6 µM [cytotoxic, full curve]

Question: And the Potency [2]?
Answer: inconclusive: 57.5 µM [cytotoxic, partial curve]

Question: What about the Potency [11] of the same molecule?
Answer: inconclusive: 37.4 µM

Question: What about the Potency [7] of the same molecule?
Answer: inconclusive: 25.7 µM [phenotype inactive, full curve, poor fit]

Question: And the Potency [4]?
Answer: active: 38.6 µM

Question: What about the Potency [5] of the same molecule?
Answer: inconclusive: 68.6 µM [phenotype inactive, single point]

Question: What about the Potency [9] of the same molecule?
Answer: inconclusive: 68.6 µM [cytotoxic, partial curve, poor fit]

Question: What about the Potency [10] of the same molecule?
Answer: inconclusive: 51.2 µM [rising, partial curve, poor fit]

Question: And the Potency [12]?
Answer: inconclusive: 13 µM [cytotoxic, partial curve, poor fit]

Question: And the Potency [13]?
Answer: inactive

Question: What about the activity, negative = inhibition [6] of the same molecule?
Answer: inconclusive: -18.1%

Question: For `COc1ccc(C(=O)NCc2ccc(OCCN(C)C)cc2)cc1OC`, which Potency [1] is on record?
Answer: inactive

Question: For `CCCCNc1c(C(=O)OCC)c(C)nc2c1cnn2CC`, which Potency [3] is on record?
Answer: inactive

Question: And the Potency [8]?
Answer: inconclusive: 33.5 µM [falling, single point]

Question: And the Potency [5]?
Answer: active: 26.6 µM

Question: What about the Potency [10] of the same molecule?
Answer: inconclusive: 33.5 µM

Question: Which Potency [3] does the source give for `Nc1c(Cl)cc(Cl)cc1Cl` here?
Answer: inactive

Question: What about the Potency [9] of the same molecule?
Answer: inactive

Question: Which Potency [3] does the source give for `CCCCCCOc1ccccc1C(N)=O` here?
Answer: inconclusive: 33.5 µM [cytotoxic, single point]

Question: And the Potency [5]?
Answer: active: 7.5 µM

Question: What about the Potency [10] of the same molecule?
Answer: inconclusive: 29.8 µM [rising, single point]

Question: With `C=CN1CCCC1=O` as the molecule, how does the Potency [1] read?
Answer: inconclusive: 76 µM [rising, single point]

Question: Which results are given for `C[C@@]12C(=O)OC(=O)[C@]1(C)C1CCC2O1`?
Answer: Potency [1]: inconclusive: 33.5 µM [rising, single point]; Potency [2]: inconclusive: 26.6 µM [rising, single point]; Potency [5]: active: 4.73 µM; Potency [9]: inconclusive: 29.8 µM [rising, single point]; Potency [10]: inconclusive: 13.3 µM [rising, partial curve, poor fit]; Potency [14]: inconclusive: 8.49 µM [rising, full curve]; Potency [6]: inconclusive: 16.9 µM [rising, partial curve, poor fit]

Question: With `O=C(Nc1cccc([N+](=O)[O-])c1)c1cc2ccccc2cc1O` as the molecule, how does the Potency [1] read?
Answer: active: 30.6 µM

Question: And the Potency [2]?
Answer: active: 0.77 µM

Question: What about the Potency [4] of the same molecule?
Answer: inconclusive: 4.86 µM [cytotoxic, full curve]

Question: And the Potency [8]?
Answer: inconclusive: 5.45 µM [cytotoxic, full curve]

Question: What about the Potency [5] of the same molecule?
Answer: inconclusive: 13.7 µM

Question: And the Potency [9]?
Answer: active: 24.3 µM

Question: And the Potency [14]?
Answer: inconclusive: 3.47 µM [cytotoxic, full curve]

Question: And the Potency [12]?
Answer: inconclusive: 5.49 µM [cytotoxic, partial curve]

Question: And the Potency [15]?
Answer: inactive
